PubChem BioAssay (NCI)
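Dose response: 5 concentrations. Exposure: 48 h. Format: 96-well plates. Endpoint: linear interpolation; highest concentration if not reached. At the GI50, growth is halved.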 A number of entries come with more than one value. The list is limited to them. There may be further records. For part of these data: Records of one sample usually come from different ranges of test concentrations, not given here; a value can be the end of its range. For part of these data: Results that share an entry are repeats (runs, samples, wells, individuals or studies). Records carry a tag for their origin. Letters count within one entry.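 TGI: concentration producing complete growth inhibition.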

How the values were obtained:
Assay in all cases: growth of human tumour cells (NCI), 48 h
CCRF-CEM leukemia = tested on: CCRF-CEM leukemia
RPMI-8226 leukemia = tested on: RPMI-8226 leukemia
K-562 leukemia = tested on: K-562 leukemia
MDA-N = tested on: MDA-N
HT29 colon = tested on: HT29 colon
HCT-116 colon = tested on: HCT-116 colon
DU-145 prostate = tested on: DU-145 prostate
PC-3 prostate = tested on: PC-3 prostate
HCT-15 colon = tested on: HCT-15 colon
HS 578T breast = tested on: HS 578T breast
RXF 393 renal = tested on: RXF 393 renal
HOP-18 NSCLC = tested on: HOP-18 NSCLC
T-47D breast = tested on: T-47D breast
SNB-78 CNS = tested on: SNB-78 CNS
OVCAR-4 ovarian = tested on: OVCAR-4 ovarian
SF-268 CNS = tested on: SF-268 CNS
KM12 colon = tested on: KM12 colon
ACHN renal = tested on: ACHN renal

COc1ccc2c(c1)/c(=C/c1ccc(N(C)C)cc1)c1cc(-c3ccccc3)[n+](C)n12
TGI (CCRF-CEM leukemia): 2.69 µM and > 100 µM
TGI (RPMI-8226 leukemia): 887 nM and > 100 µM
TGI (K-562 leukemia): 1.29 µM and > 100 µM

c1cc(CNC2C3CCC(C3)C2c2c[nH]c3ccccc23)cc(CNC2C3CCC(C3)C2c2c[nH]c3ccccc23)c1 (configuration not stated)
GI50 (MDA-N): 276 nM [sample A, 1 test] and 11.6 µM [sample B, 1 test]
TGI (MDA-N): 739 nM [sample A, 1 test] and 24.7 µM [sample B, 1 test]
TGI (HT29 colon): 1.05 µM [sample A, 1 test] and 12.6 µM [sample B, 1 test]
GI50 (HCT-116 colon): 201 nM [sample A, 1 test] and 11.9 µM [sample B, 1 test]
TGI (HCT-116 colon): 380 nM [sample A, 1 test] and 24.2 µM [sample B, 1 test]

CC[C@@]1(O)C(=O)OCc2c1cc1n(c2=O)Cc2cc3cc(N)ccc3nc2-1
TGI (DU-145 prostate): 815 nM and 38.1 nM
TGI (PC-3 prostate): > 100 µM [1 test] and 9.14 µM [mean of 3 tests]
TGI (HCT-15 colon): > 100 µM [mean of 2 tests] and 5.75 µM [mean of 4 tests]
TGI (HT29 colon): > 100 µM [1 test] and 711 nM [mean of 3 tests]
TGI (CCRF-CEM leukemia): 1.35 µM and > 100 µM
TGI (HS 578T breast): > 100 µM [1 test] and 8.29 µM [mean of 3 tests]
TGI (RXF 393 renal): 36.2 nM [1 test] and 521 nM [mean of 4 tests]
TGI (K-562 leukemia): > 100 µM [mean of 2 tests] and 8.23 µM [mean of 4 tests]
GI50 (HOP-18 NSCLC): 5.79 nM and 59.9 nM
TGI (T-47D breast): 2 µM and 18.8 nM
TGI (SNB-78 CNS): 802 nM and 8.05 µM

CN[C@@H]1C[C@H]2O[C@@](C)([C@@H]1OC)n1c3ccccc3c3c4c(c5c6ccccc6n2c5c31)C(=O)N[C@@H]4O
TGI (OVCAR-4 ovarian): 187 nM and 2.23 µM
TGI (SF-268 CNS): 48.5 nM and 2.08 µM
TGI (HT29 colon): 300 nM and 8.03 µM
TGI (RPMI-8226 leukemia): 193 nM and 9.79 µM
TGI (HS 578T breast): 27.4 nM and 287 nM
TGI (KM12 colon): 65.6 nM and 2.02 µM
TGI (K-562 leukemia): 300 nM and 14.9 µM
TGI (ACHN renal): 31.3 nM [1 test] and 12.9 µM [mean of 2 tests]
